The text below walks through data of a collection of fitness landscapes (doi:10.1126/science.1257360).

B1: PhoQ; a variant is named by its letters at X, in order, P23837 (parent)
chain: MKKLLRLFFPLSLRVRFLLATAAVVLVLSLAYGMVALIGYSVSFDKTTFRLLRGESNLFYTLAKWENNKLHVELPENIDKQSPTMTLIYDENGQLLWAQRDVPWLMKMIQPDWLKSNGFHEIEADVNDTSLLLSGDHSIQQQLQEVREDDDDAEMTHSVAVNVYPATSRMPKLTIVVVDTIPVELKSSYMVWSWFIYVLSANLLLVIPLLWVAAWWSLRPIEALAKEVRELEEHNRELLNPATTRELTSLVRNLNRLLKSERERYDKYRTTLTDLTHSLKTPLXXLQXXLRSLRSEKMSVSDAEPVMLEQISRISQQIGYYLHRASMRGGTLLSRELHPVAPLLDNLTSALNKVYQRKGVNISLDISPEISFVGEQNDFVEVMGNVLDNACKYCLEFVEISARQTDEHLYIVVEDDGPGIPLSKREVIFDRGQRVDTLRPGQGVGLAVAREITEQYEGKIVAGESMLGGARMEVIFGRQHSAPKDE

The list shows a part of the results. A value given as a limit tells only on which side of the number the result lay.

In this assay the parent is B1. As to the kind of experiment: enrichment ratio after two sorts for PhoP signalling (ratio (wild type AVST 3.29)); higher = more functional. As to conditions: with PhoP (E. coli).
In the case of SSCE, the enrichment ratio is 3.26. The value for NCAG was ≤ 0.25; that for FDEF was ≤ 0.25; that for RHEG was ≤ 0.25.

Take GWRH: the enrichment ratio is ≤ 0.25.

Regarding DATL, the enrichment ratio was ≤ 0.25. For YHVN, the enrichment ratio was ≤ 0.25. The result for SHFL reads ≤ 0.25; that for TESE, 20. The value for YWVM was ≤ 0.25; that for TVGQ was 15.3. The value for AGPY was ≤ 0.25. In the case of LACV, the enrichment ratio was ≤ 0.25. The result for FMLM reads ≤ 0.25; that for HSCQ, ≤ 0.25. Regarding FGPT, the enrichment ratio is ≤ 0.25. The result for YEDK reads ≤ 0.25; that for SLWI, ≤ 0.25.

As for YNKP, the enrichment ratio is ≤ 0.25. The value for DDPD was ≤ 0.25; that for RMST was ≤ 0.25; that for GSST was 1.68.

Regarding DCVQ, the enrichment ratio is ≤ 0.25. For IKIF, the enrichment ratio was ≤ 0.25. As to LAPL, the enrichment ratio was ≤ 0.25. The result for IRVP reads ≤ 0.25; that for MRDD, ≤ 0.25. Consider NICL, for which the enrichment ratio was 3.87. The value for IEVV was ≤ 0.25. On to YGPS, for which the enrichment ratio was ≤ 0.25.

Regarding WFNE, the enrichment ratio is ≤ 0.25. The result for SPTY reads ≤ 0.25. The result for KKIV reads ≤ 0.25; that for TCPH, ≤ 0.25. With ELQK, the enrichment ratio is ≤ 0.25. The result for TAKA reads ≤ 0.25; that for SVTG, 13.5; that for PWME, ≤ 0.25. With EARA, the enrichment ratio is ≤ 0.25. Consider IGKL, for which the enrichment ratio was ≤ 0.25. As for IFVD, the enrichment ratio is ≤ 0.25. The result for AEDM reads ≤ 0.25; that for MVYH, ≤ 0.25; that for HDVY, ≤ 0.25. Consider HHEY, for which the enrichment ratio was ≤ 0.25. In the case of LPPH, the enrichment ratio is ≤ 0.25. On to LEQF, for which the enrichment ratio is ≤ 0.25. As for SFNV, the enrichment ratio is ≤ 0.25. The value for HSQN was ≤ 0.25; that for HYID was ≤ 0.25; that for YWYE was ≤ 0.25. SCGG: the enrichment ratio came out at 11.1. Turning to HMPD, the enrichment ratio is ≤ 0.25. The result for FWLN reads ≤ 0.25. The value for RDRP was ≤ 0.25; that for FVFN was ≤ 0.25; that for TIQA was 4.81.

Consider QQIA, for which the enrichment ratio was ≤ 0.25.

As to EMGS, the enrichment ratio was ≤ 0.25. SYCR: the enrichment ratio was ≤ 0.25.

As for PTQI, the enrichment ratio is ≤ 0.25.

For KITP, the enrichment ratio was ≤ 0.25. The value for LRYF was ≤ 0.25; that for NILI was 0.917; that for PCPF was ≤ 0.25. For DDKD, the enrichment ratio is ≤ 0.25. For APYW, the enrichment ratio is ≤ 0.25. The result for YNRC reads ≤ 0.25; that for PYQD, ≤ 0.25.

For NPLF, the enrichment ratio is ≤ 0.25.

Turning to ERGC, the enrichment ratio is ≤ 0.25.

With MTGN, the enrichment ratio is ≤ 0.25. The result for SKMK reads ≤ 0.25; that for GPWC, ≤ 0.25; that for ACRH, ≤ 0.25.

As to ITGA, the enrichment ratio was ≤ 0.25. Take PVCY: the enrichment ratio is ≤ 0.25. For ANVH, the enrichment ratio is ≤ 0.25. The value for NWQD was ≤ 0.25; that for PILS was ≤ 0.25. For the variant AWVQ, the enrichment ratio was 1.11. For the variant GIPW, the enrichment ratio was ≤ 0.25. With GAYF, the enrichment ratio is ≤ 0.25. The value for FLMN was ≤ 0.25; that for YHQW was ≤ 0.25; that for LRNP was ≤ 0.25. Consider DEFH, for which the enrichment ratio is ≤ 0.25. The value for FKWV was ≤ 0.25; that for PMNM was ≤ 0.25; that for SIGD was 7.24. The result for KRSR reads ≤ 0.25.

With LPQF, the enrichment ratio is ≤ 0.25.

Consider HKFM, for which the enrichment ratio was ≤ 0.25. The value for HAMK was ≤ 0.25. The value for DSIL was ≤ 0.25; that for FCCI was ≤ 0.25; that for AWGA was ≤ 0.25.

Turning to IEAK, the enrichment ratio was ≤ 0.25. The result for VYNH reads ≤ 0.25; that for DDSD, ≤ 0.25. As for YKGQ, the enrichment ratio was ≤ 0.25.

Turning to WPCR, the enrichment ratio was ≤ 0.25. The value for VMAN was ≤ 0.25; that for YGAD was ≤ 0.25. The result for MCGM reads 12.2; that for RNND, ≤ 0.25. Turning to RFQC, the enrichment ratio is ≤ 0.25. For GPKY, the enrichment ratio was ≤ 0.25. The value for HWLT was ≤ 0.25; that for NQTN was ≤ 0.25. For ERVY, the enrichment ratio was ≤ 0.25. The result for DVFG reads ≤ 0.25; that for VICM, ≤ 0.25. The result for RLGQ reads ≤ 0.25; that for LIQD, ≤ 0.25. The value for MCRY was ≤ 0.25; that for LGQL was ≤ 0.25; that for IMMY was ≤ 0.25. Consider IWPD, for which the enrichment ratio was ≤ 0.25.

As for PNYW, the enrichment ratio was ≤ 0.25. The value for NFFD was ≤ 0.25; that for HMER was ≤ 0.25; that for QPIG was ≤ 0.25. On to KRNG, for which the enrichment ratio was ≤ 0.25. With LWRQ, the enrichment ratio was ≤ 0.25. The result for PAIS reads ≤ 0.25; that for AACK, ≤ 0.25; that for VDTA, 0.656. Turning to WWLH, the enrichment ratio is ≤ 0.25. The value for GFGH was ≤ 0.25.

With WTNG, the enrichment ratio is ≤ 0.25. The value for REGP was 0.634. Take PPGH: the enrichment ratio was ≤ 0.25.

WSTH: the enrichment ratio is ≤ 0.25.

Turning to CSPF, the enrichment ratio is ≤ 0.25. Regarding AASN, the enrichment ratio worked out at 10.1. The result for PLEH reads ≤ 0.25; that for AYVI, 0.489; that for SYFF, ≤ 0.25. Turning to MVWQ, the enrichment ratio was found to be 10. For HPAY, the enrichment ratio is ≤ 0.25.

PQWL: the enrichment ratio was ≤ 0.25. Take GGDP: the enrichment ratio is ≤ 0.25. The result for VYHG reads ≤ 0.25; that for VPST, ≤ 0.25. The value for RTHG was ≤ 0.25; that for GAPD was ≤ 0.25; that for FWFS was ≤ 0.25.

Turning to WVVG, the enrichment ratio is ≤ 0.25. As for LKTY, the enrichment ratio was ≤ 0.25. The value for SYMG was 12.5; that for FLST was ≤ 0.25; that for VAQF was ≤ 0.25. The result for PSGH reads ≤ 0.25; that for VFDC, ≤ 0.25. With MWVD, the enrichment ratio was ≤ 0.25.

As to PLFT, the enrichment ratio was ≤ 0.25. The result for NKNH reads ≤ 0.25. Regarding TLYR, the enrichment ratio was ≤ 0.25. The value for RLCN was ≤ 0.25; that for AINY was ≤ 0.25.

As to HALF, the enrichment ratio turned out to be 3.03. Consider IYHE, for which the enrichment ratio is ≤ 0.25. Take VIAK: the enrichment ratio is ≤ 0.25. The result for ATDG reads ≤ 0.25; that for PSVM, ≤ 0.25; that for HFVF, ≤ 0.25.

As to QDSR, the enrichment ratio was ≤ 0.25. For the variant TIPC, the enrichment ratio was ≤ 0.25. Regarding TACF, the enrichment ratio is 18.8.

On to DYTG, for which the enrichment ratio was ≤ 0.25. The value for VGNM was ≤ 0.25; that for KSLA was ≤ 0.25. With IVQW, the enrichment ratio was ≤ 0.25.

On to YQST, for which the enrichment ratio was ≤ 0.25. The value for KTMH was ≤ 0.25.

Turning to MTFN, the enrichment ratio is 16.9.

For the variant DHRL, the enrichment ratio is ≤ 0.25. For AQRK, the enrichment ratio was ≤ 0.25.

For the variant LVMH, the enrichment ratio was ≤ 0.25. On to QHVF, for which the enrichment ratio was ≤ 0.25. The value for AWPQ was ≤ 0.25; that for DAQC was ≤ 0.25.

With EHGY, the enrichment ratio was ≤ 0.25. The result for PWYY reads ≤ 0.25. The value for LFCE was ≤ 0.25; that for NGFY was ≤ 0.25.

For PSNN, the enrichment ratio is ≤ 0.25. The value for MTYN was ≤ 0.25; that for NNRF was ≤ 0.25. As for RMEC, the enrichment ratio was ≤ 0.25. The result for NSWS reads ≤ 0.25. With WYGS, the enrichment ratio is ≤ 0.25. The result for QKTH reads ≤ 0.25; that for LRWF, ≤ 0.25.
